# Test results reported in PubChem BioAssay AID1030 (National Center for Advancing Translational Sciences (NCATS), 2008).
# Screen size: about 220,000 compounds; about 16,000 (7.3%) were called active. Inconclusive means that the source gave no clear call. Such entries were picked first, then a sample of the others. Calls follow the shape of the dose curve; as a rule, active = well fitted inhibition curve with a large enough effect (not every such curve was filed as active); inconclusive = small, poorly fitted or top-dose-only effect, or another doubt; inactive = no such curve, though single readings can be large or run the other way. No potency is given beside an inconclusive call; the fits are too rough. More than one record can exist for a structure, and the calls need not agree.
# Biological target: Aldehyde dehydrogenase 1A1 (Homo sapiens) (UniProt P00352)
# UniProt P00352, sequence (P00352 whole entry, looked up): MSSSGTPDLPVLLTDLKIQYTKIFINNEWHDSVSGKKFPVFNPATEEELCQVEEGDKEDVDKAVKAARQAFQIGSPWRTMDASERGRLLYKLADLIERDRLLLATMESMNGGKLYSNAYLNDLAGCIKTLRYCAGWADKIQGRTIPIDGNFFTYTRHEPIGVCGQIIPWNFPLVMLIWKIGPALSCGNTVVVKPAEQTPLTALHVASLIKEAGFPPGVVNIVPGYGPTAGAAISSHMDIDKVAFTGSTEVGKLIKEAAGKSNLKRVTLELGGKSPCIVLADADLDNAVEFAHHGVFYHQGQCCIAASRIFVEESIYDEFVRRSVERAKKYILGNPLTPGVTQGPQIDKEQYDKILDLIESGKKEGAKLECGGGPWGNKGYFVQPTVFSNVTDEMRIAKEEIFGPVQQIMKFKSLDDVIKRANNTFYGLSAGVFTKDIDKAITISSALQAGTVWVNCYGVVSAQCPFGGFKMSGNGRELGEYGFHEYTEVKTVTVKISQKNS
# Test: qHTS Assay for Inhibitors of Aldehyde Dehydrogenase 1 (ALDH1A1);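 as to activity, negative = inhibition: plate controls were no enzyme wells and a reference inhibitor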
# Conditions: Purified ALDH1A1, NADH fluorescence, propionaldehyde substrate; series mostly up to 75.3 µM
# Potency is read from the fitted curve at half-maximal effect; tags tell the direction and shape of the fitted curve.
Compound,Potency,"activity, negative = inhibition"
O=Cc1c(C(=O)O)n(Cc2ccccc2Cl)c2ccccc12,"inconclusive [inhibitor, single point]",–
C=CCn1c(O)c(C(C)=NCCC(c2ccccc2)c2ccccc2)c(=O)[nH]c1=O,"inconclusive [inhibitor, full curve]",–
C[C@@]12CCC(=O)C=C1C=C[C@H]1[C@H]3CC[C@](O)(CCC(=O)O)[C@]3(C)CC[C@@H]12,inactive,–
COc1ccc(N2C(=O)NC(=O)/C(=C/c3ccc4c(c3)Cc3ccccc3-4)C2=O)cc1,"inconclusive [inhibitor, partial curve]",–
O=C(c1cc(S(=O)(=O)N2CCOCC2)ccc1F)N1CCC2(CC1)OCCO2,inactive,–
CCCCC/C=C\C/C=C\C/C=C\C/C=C\CCCC(=O)NC(C)C(=O)O (stereo not given),inactive,–
COc1cc(C2c3cc4c(cc3C(O)C3COC(=O)C23)OCO4)cc(OC)c1O (stereo not given),inactive,–
O=P(O)(O)C(Cl)(Cl)P(=O)(O)O,inactive,–
Cc1ccsc1C(=O)C1CCCN(CCO)C1 (stereo not given),"inconclusive [inhibitor, full curve, poor fit]",–
CCCCCn1c(=O)c(C(=O)NCc2ccccn2)c(O)c2ccccc21,"inconclusive [inhibitor, partial curve]",–
C[C@]12C/C(=C/O)C(=O)C[C@@H]1CC[C@@H]1[C@@H]2CC[C@@]2(C)[C@H]1CC[C@]2(C)O,active: 0.0708 µM,–
COc1ccc(CCN(C)Cc2c(F)cccc2F)cc1OC,inactive,–
CN1C(=O)N(C)C(=O)C2(Cc3cc(N)ccc3N3CCN(c4ccccc4F)CC32)C1=O (stereo not given),"inconclusive [inhibitor, single point]",–
[O-]C1=N/[N+](=C/c2ccc(Cl)cc2)CC1,"inconclusive [inhibitor, single point]",–
COc1ccc(C(=O)O[C@H]2CC[C@@]3(C)[C@H]4CC[C@H]5[C@]3(C[C@]3(O)[C@H]6CN7C[C@H](C)CC[C@H]7[C@](C)(O)[C@]6(O)[C@H](O)C[C@]53O)O[C@]24O)cc1OC,–,inactive: 9.28% [at 13.5 µM]
Cc1cc(/C=C2\C(=O)NC(=O)N(c3ccc(Cl)cc3)C2=O)c(C)n1-c1sc2c(c1C#N)CCCC2,active: 0.251 µM,–
NC1=N[C@H](O)[C@H]2C3O[C@]4(O)O[C@H](C(O)[C@@]2(N1)[C@@H]4O)C3(O)CO (stereo not given in full),inactive,–
NC1CCCCC1N=Cc1c(O)n(CCc2ccc(F)cc2)c(=O)[nH]c1=O (stereo not given),"inconclusive [inhibitor, partial curve]",–
COc1ccc(C(C#N)N2CCOCC2)cc1 (stereo not given),active: 35.5 µM,–
CC(C)CCn1c(N)c(C(=O)OCC2CCCO2)c2nc3ccccc3nc21 (stereo not given),"inconclusive [inhibitor, partial curve]",–
CCC(=NCCC1=CCCCC1)c1c(O)[nH]c(=O)[nH]c1=O,"inconclusive [inhibitor, single point]",–
CC(C)[C@]1(NC(=O)[C@@H]2C=C3c4cccc5[nH]cc(c45)C[C@H]3N(C)C2)O[C@@]2(O)C3CCCN3C(=O)[C@H](Cc3ccccc3)N2C1=O (stereo not given in full),"inconclusive [inhibitor, partial curve]",–
N#CC(Br)Br,"inconclusive [inhibitor, single point]",–

Compound,Potency,"activity, negative = inhibition"
COc1ccc(CC(=O)NC(=S)NNC(=O)COc2c(C)cccc2C)cc1,"inconclusive [inhibitor, single point]",–
CCOc1ccc(-n2c(-c3ccoc3)nc3ccccc3c2=O)cc1,"inconclusive [inhibitor, single point]",–
CC1CCCCN1CC(=O)c1ccc2cc[nH]c2c1 (stereo not given),"inconclusive [inhibitor, single point]",–
CC(=NCCC1=CCCCC1)c1c(O)n(-c2ccccc2)c(=O)[nH]c1=O,"inconclusive [inhibitor, single point]",–
Cc1c(C(=O)N2CCC3(CC2)OCCO3)sc2ncnc(N3CCN(c4ccccn4)CC3)c12,"inconclusive [inhibitor, partial curve]",–
ClCCCCl,inactive,–
CN(C)c1ccc(/C=C/C=C2/C(=O)NC(=O)N(c3ccccc3)C2=O)cc1,"inconclusive [inhibitor, partial curve]",–
O=C1C=CC(=O)C=C1,"inconclusive [inhibitor, single point]",–
O=C=NC1CCCCC1,active: 28.2 µM,–
O=C(COc1ccc(Br)cc1)N1CCN(Cc2c[nH]c3ccccc23)CC1,"inconclusive [inhibitor, single point]",–
CCOP(=S)(OCC)Oc1ccc2c(C)c(Cl)c(=O)oc2c1,"inconclusive [inhibitor, partial curve]",–
BrCCBr,inactive,–
Cc1nn(-c2ccccc2)c(Cl)c1C1C(C#N)=C(N)Oc2c1c(=O)oc1ccccc21 (stereo not given),inactive,–
CCC1CN2CCC1CC2C(O)c1ccnc2ccccc12 (stereo not given),inactive,–
CC(C)(C)CC(=O)Nc1nnc(SCC(=O)NCc2cccs2)s1,active: 17.8 µM,–
CCOC(=O)c1c(C)n(Cc2ccccc2)c2ccc(OCC(O)Cn3nc(C)nc3C)cc12 (stereo not given),inactive,–
Nc1ncnc2c1ncn2[C@@H]1O[C@H](COP(=O)(O)OP(=O)(O)CP(=O)(O)O)[C@@H](O)[C@H]1O,"inconclusive [inhibitor, single point]",–
Cc1cccc(-n2c(O)c(/C=N/Nc3nc4c(c(=O)n(C)c(=O)n4C)n3C)c(=O)[nH]c2=S)c1,active: 10 µM,–
CCOc1ccc(N2C(=O)NC(=O)/C(=C\c3cc(OC)c(OC)cc3[N+](=O)[O-])C2=O)cc1,active: 11.2 µM,–
O=C(c1cc([N+](=O)[O-])ccc1N1CCNCC1)N1CCOCC1,"inconclusive [inhibitor, single point]",–
CC(C)c1oc(=O)cc2c1[C@@H](O)[C@H]1OC(=O)[C@@]3(C)CC[C@@H](O)[C@@]2(C)C13 (stereo not given in full),inactive,–
CC(C)(C)NC[C@H](O)c1cc(Cl)c(N)c(Cl)c1,inactive,–
